Values quoted from earlier work, collected in PMC12064607 (Clinical Pharmacokinetics, 2025).

Legend:
[1] = human, in vivo; cited from earlier work
[2] = test system: UT-NC002-1T/Human/2020/Tokyo; settings: cited from earlier work

For CCC(CC)COC(=O)[C@H](C)N[P@](=O)(OC[C@H]1O[C@@](C#N)(c2ccc3c(N)ncnn23)[C@H](O)[C@@H]1O)Oc1ccccc1 [Remdesivir, reference compound], the volume of distribution [1] is listed as 157 L and the pEC50 [2] is listed as 5.77.

pEC50: −log10 of the molar value.
